Experimental data reported in the supplement of paper PMC8728848.
The list shows a part of the results.

Legend:
Assay in all cases: glycan array binding signal (z-score within array); higher = stronger binding
Conditions in all cases: glycan notation: IUPAC condensed, linker removed
[1] = molecular target: Neu5Ac(a2-6)Gal(b1-4)GlcNAc(b1-3)Gal(b1-4)GlcNAc(b1-2)Man(a1-3)[Neu5Ac(a2-6)Gal(b1-4)GlcNAc(b1-3)Gal(b1-4)GlcNAc(b1-2)Man(a1-6)]GalNAc
Procedure, shortened: (§1)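 The Consortium for Functional Glycomics database supplied 3228 glycan arrays, of which those lacking an available protein sequence were dropped. The binding signal, a within-array Z-score, was averaged across arrays of the same protein sequence and across linkers. Negative scores can be read as non-binding.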

[2] = molecular target: Neu5Ac(a2-6)Gal(b1-4)GlcNAc(b1-3)Gal(b1-4)GlcNAc(b1-3)Gal(b1-4)GlcNAc
Procedure, shortened: as §1

[3] = molecular target: Neu5Ac(a2-6)Gal(b1-4)GlcNAc(b1-3)Gal(b1-4)GlcNAc(b1-3)Gal(b1-4)GlcNAc(b1-2)Man(a1-3)[Neu5Ac(a2-6)Gal(b1-4)GlcNAc(b1-3)Gal(b1-4)GlcNAc(b1-3)Gal(b1-4)GlcNAc(b1-2)Man(a1-6)]GalNAc
Procedure, shortened: as §1

[4] = molecular target: Neu5Ac(a2-6)Gal(b1-4)GlcNAc(b1-3)Gal(b1-4)GlcNAc(b1-3)GalNAc
Procedure, shortened: as §1

[5] = molecular target: Neu5Ac(a2-6)Gal(b1-4)GlcNAc(b1-3)Gal(b1-4)GlcNAc(b1-3)[Neu5Ac(a2-6)Gal(b1-4)GlcNAc(b1-3)Gal(b1-4)GlcNAc(b1-6)]GalNAc
Procedure, shortened: as §1

[6] = molecular target: Neu5Ac(a2-6)Gal(b1-4)GlcNAc(b1-3)Gal(b1-4)GlcNAc(b1-6)[Gal(b1-3)]GalNAc
Procedure, shortened: as §1

[7] = molecular target: Neu5Ac(a2-6)Gal(b1-4)GlcNAc(b1-3)Gal(b1-4)[Fuc(a1-3)]GlcNAc(b1-3)Gal(b1-4)[Fuc(a1-3)]GlcNAc
Procedure, shortened: as §1

[8] = molecular target: Neu5Ac(a2-6)Gal(b1-4)GlcNAc(b1-3)GalNAc
Procedure, shortened: as §1

[9] = molecular target: Neu5Ac(a2-6)Gal(b1-4)GlcNAc(b1-3)[Neu5Ac(a2-6)Gal(b1-4)GlcNAc(b1-6)]GalNAc
Procedure, shortened: as §1

[10] = molecular target: Neu5Ac(a2-6)Gal(b1-4)GlcNAc(b1-6)GalNAc
Procedure, shortened: as §1

[11] = molecular target: Neu5Ac(a2-6)Gal(b1-4)GlcNAc(b1-6)[Gal(b1-3)GlcNAc(b1-3)]Gal(b1-4)Glc
Procedure, shortened: as §1

[12] = molecular target: Neu5Ac(a2-6)Gal(b1-4)GlcNAc(b1-6)[Gal(b1-3)]GalNAc
Procedure, shortened: as §1

[13] = molecular target: Neu5Ac(a2-6)Gal(b1-4)GlcNAc6S
Procedure, shortened: as §1

Neu5Ac(a2-6)GalNAc = molecular target: Neu5Ac(a2-6)GalNAc
Procedure, shortened: as §1

[14] = molecular target: Neu5Ac(a2-6)GalNAc(b1-4)GlcNAc
Procedure, shortened: as §1

[15] = molecular target: Neu5Ac(a2-6)GalNAc(b1-4)GlcNAc6S
Procedure, shortened: as §1

[16] = molecular target: Neu5Ac(a2-6)GlcNAc(b1-4)GlcNAc
Procedure, shortened: as §1

[17] = molecular target: Neu5Ac(a2-6)GlcNAc(b1-4)GlcNAc(b1-4)GlcNAc
Procedure, shortened: as §1

Neu5Ac(a2-8)Neu5Ac = molecular target: Neu5Ac(a2-8)Neu5Ac
Procedure, shortened: as §1

[18] = molecular target: Neu5Ac(a2-8)Neu5Ac(a2-3)Gal(b1-3)GalNAc(b1-4)[Neu5Ac(a2-3)]Gal(b1-4)Glc
Procedure, shortened: as §1

[19] = molecular target: Neu5Ac(a2-8)Neu5Ac(a2-3)Gal(b1-3)GalNAc(b1-4)[Neu5Ac(a2-8)Neu5Ac(a2-3)]Gal(b1-4)Glc
Procedure, shortened: as §1

[20] = molecular target: Neu5Ac(a2-8)Neu5Ac(a2-3)Gal(b1-4)Glc
Procedure, shortened: as §1

[21] = molecular target: Neu5Ac(a2-8)Neu5Ac(a2-3)Gal(b1-4)GlcNAc
Procedure, shortened: as §1

[22] = molecular target: Neu5Ac(a2-8)Neu5Ac(a2-3)[Gal(b1-3)GalNAc(b1-4)]Gal(b1-4)Glc
Procedure, shortened: as §1

[23] = molecular target: Neu5Ac(a2-8)Neu5Ac(a2-3)[GalNAc(b1-4)]Gal(b1-4)Glc
Procedure, shortened: as §1

B1: Gal 2 (Homo sapiens), P05162 (protein)
chain: MTGELEVKNMDMKPGSTLKITGSIADGTDGFVINLGQGTDKLNLHFNPRFSESTIVCNSLDGSNWGQEQREDHLCFSPGSEVKFTVTFESDKFKVKLPDGHELTFPNRLGHSHLSYLSVRGGFNMSSFKLKE
Q: For B1, which “glycan array binding signal (z-score)” value [1] is on record?
A: Its value is -0.008.

Q: What about the “glycan array binding signal (z-score)” value [2] of the same binder?
A: Its value is -0.353.

Q: And the “glycan array binding signal (z-score)” value [3]?
A: Its value is 0.028.

Q: And the “glycan array binding signal (z-score)” value [4]?
A: Its value is -0.109.

Q: What about the “glycan array binding signal (z-score)” value [5] of the same binder?
A: The value was 0.175.

Q: And the “glycan array binding signal (z-score)” value [6]?
A: The value was 0.018.

Q: And the “glycan array binding signal (z-score)” value [7]?
A: The value was -0.229.

Q: And the “glycan array binding signal (z-score)” value [8]?
A: The value was -0.083.

Q: What about the “glycan array binding signal (z-score)” value [9] of the same binder?
A: The value was -0.306.

Q: What about the “glycan array binding signal (z-score)” value [10] of the same binder?
A: The value was -0.021.

Q: And the “glycan array binding signal (z-score)” value [11]?
A: Its value is -0.21.

Q: What about the “glycan array binding signal (z-score)” value [12] of the same binder?
A: Its value is 0.069.

Q: And the “glycan array binding signal (z-score)” value [13]?
A: The value was -0.271.

Q: And the “glycan array binding signal (z-score)” value (Neu5Ac(a2-6)GalNAc)?
A: The value was -0.259.

Q: What about the “glycan array binding signal (z-score)” value [14] of the same binder?
A: The value was -0.284.

Q: What about the “glycan array binding signal (z-score)” value [15] of the same binder?
A: The value was -0.19.

Q: What about the “glycan array binding signal (z-score)” value [16] of the same binder?
A: The value was -0.171.

Q: What about the “glycan array binding signal (z-score)” value [17] of the same binder?
A: The value was -0.178.

Q: And the “glycan array binding signal (z-score)” value (Neu5Ac(a2-8)Neu5Ac)?
A: The value was -0.23.

Q: And the “glycan array binding signal (z-score)” value [18]?
A: The value was -0.254.

Q: And the “glycan array binding signal (z-score)” value [19]?
A: The value was -0.09.

Q: What about the “glycan array binding signal (z-score)” value [20] of the same binder?
A: Its value is -0.379.

Q: And the “glycan array binding signal (z-score)” value [21]?
A: The value was -0.102.

Q: What about the “glycan array binding signal (z-score)” value [22] of the same binder?
A: Its value is -0.206.

Q: And the “glycan array binding signal (z-score)” value [23]?
A: The value was -0.27.
